Measured values from article PMC12136788.
Some of the results follow.

B1: chr8:23842113:23842214:-|3pUTR|ENSG00000159167|msi1|FALSE|unique (ssRNA)
RNA: GGGAGUUCUACAGUCCGACGAUCACUUUAGACAUUUUUGUGCCAUUAUAUUUGCAUUAUGUAUUUAUAAUUUAAAUGAUAUUUAGGUUUUUGGCUGAGUACUGGAAUAAACAGUGAGCAUAUCUGGUAUAUGUCAUUAUUUAUCAACAGAGGAUUGAGCAUCA
B2: ENSG00000070961:be:win_1|CDS|ENSG00000070961|bound_else_gene|NA|bound_elsewhere_windowed (ssRNA)
RNA: GGGAGUUCUACAGUCCGACGAUCAUGGGCGACAUGGCAAACAACUCAGUUGCUUACAGUGGUGUGAAAAACUCUUUGAAGGAAGCUAAUCAUGAUGGAGACUUUGGAAUUACGCUCGCAGAGCUGCGGGCUCUCAUGGAGCUCCAACAGAGGAUUGAGCAUCA
B3: chr11:95131931:95132033:+|3pUTR|ENSG00000149218|unk|FALSE|bound_elsewhere (ssRNA)
RNA: GGGAGUUCUACAGUCCGACGAUCGGAUAGGUGGCUGAGACCCACUGCCCUGAGCUACUAGUGUGGCUGUGCCUGUGGGUCUCUAGAACCAUCUGCAUUGGACGUGAAGCCACAGCAGGUGGCUGGACUGCUGGCCUGUUCCUACAACAGAGGAUUGAGCAUCA
B4: chr4:2944067:2944171:-|CDS|ENSG00000087269|unk|total|mutant (ssRNA)
RNA: GGGAGUUCUACAGUCCGACGAUCGGCUUUGUCCCAGAGGUUUAUACCUGAGCUUAUUAAUUUUCUUCUUGGGAUUCUUUACACCGCAACUCCAAACAAAGCAAGCCAAGGUGAGUUGAUUUGAGGGAGGUUCCUACAAAUAUGCAACAGAGGAUUGAGCAUCA
B5: chr2:1632407:1632508:-|3pUTR|ENSG00000130508|msi1|total|mutant (ssRNA)
RNA: GGGAGUUCUACAGUCCGACGAUCUUGGUAAGUGAUUGAUAAAAAUUGGUUGGUGUUUCAUGACAUGUGGACUUCUUUUGAAACCGCAAGUCAAAUGCCGUGACCAAAUUGUGGAAGAGAUUUCUGUCAAACCGGAAAUGUGUACAACAGAGGAUUGAGCAUCA
B6: chr6:73641827:73641929:-|CDS|ENSG00000119899|unk|total|mutant (ssRNA)
RNA: GGGAGUUCUACAGUCCGACGAUCGAGAAAAGAGCUGCUCUGUGAAGGUCUUAAAGGAUUGUUUUAUUCUUUUCUGAUUUUUGCCGGGUAAGAAGUACCAAUGGGAUGCAGAAACUCAAGGAUGGAUUCUCGGUUCCUUUUUUUCAACAGAGGAUUGAGCAUCA
B7: chrX:119453419:119453520:+|3pUTR|ENSG00000077713|unk|total|mutant (ssRNA)
RNA: GGGAGUUCUACAGUCCGACGAUCCAGGUAAUUGAAGUGGCUGAGUGGAUACCACGUUGUGAGGUCAGCCACUGGGUCACUUGCCGUCAAUGCAAAGCUUGCACAAACCAACGUCAGCCCCGUUUCACUCAGUUUGACCUGAGACAACAGAGGAUUGAGCAUCA
B8: chr7:149003559:149003660:-|3pUTR|ENSG00000155660|msi1|FALSE|unique (ssRNA)
RNA: GGGAGUUCUACAGUCCGACGAUCUUUUAUACUUUGGUGUUUCACUUCAUGCUCUGAAUACUGAAUAACCAUGAAUGACUGAAUAGUUUAGUCCAGAUUUUUACAGAGGAUACAUCUAUUUUUAUCAUUAUUUGGGGUUUGAAACAACAGAGGAUUGAGCAUCA
B9: chr2:121339258:121339359:-|3pUTR|ENSG00000074054|unk|total|mutant (ssRNA)
RNA: GGGAGUUCUACAGUCCGACGAUCUUUUGAGAUUAAUUCUAAUAACGUAUUUGCUAUUGCAGUGCAGAGCCCACUGCAACUGCCCGGACUGAAAGCAGAGGCUGGGUGCCAGAGCACGUGAUUCUUAACAUCAUUUCCACAGACCAACAGAGGAUUGAGCAUCA
B10: ENSG00000124766:be:win_3201|3pUTR|ENSG00000124766|bound_else_gene|NA|bound_elsewhere_windowed (ssRNA)
RNA: GGGAGUUCUACAGUCCGACGAUCUAAAUCGCUGUUUGGAUUUCCUGAUUUUAUAACAGGGCGGCUGGUUAAUAUCUCACACAGUUUAAAAAAUCAGCCCCUAAUUUCUCCAUGUUUACACUUCAAUCUGCAGGCUUCUUAAAGCAACAGAGGAUUGAGCAUCA
B11: ENSG00000136731:stop:overlap|stop_codon|ENSG00000136731|stop_codon|NA|stop_codon (ssRNA)
RNA: GGGAGUUCUACAGUCCGACGAUCCCAUUACAACCUCUCUUACAACAAAAUGGUUUUCCACUCCAUUGUUGUUAGAAGCCAGAUAGCAGCUGAUGAACCUCCACCAGAAGGAUGUAAUUCGUUUUUUUCAGUGCAUGGAAAGAACAACAGAGGAUUGAGCAUCA
B12: chr1:185309019:185309167:-|CDS|ENSG00000116679|unk|total|mutant (ssRNA)
RNA: GGGAGUUCUACAGUCCGACGAUCGCACACAGAGCAGUGCCCGCUUGCUGCAGUCCCUAUUUAUUUGAAAUCUUUAACCGUGACCGUGAUCCUCAUGGAAUUUCUCACGUUAAAUUUGAUGAUCUCAAUCCAGAAGCUGUUGAACAACAGAGGAUUGAGCAUCA
B13: chr14:71588152:71588260:+|CDS|ENSG00000197555|unk|FALSE|unique (ssRNA)
RNA: GGGAGUUCUACAGUCCGACGAUCGAAAACAUAAAAGAAUCUAGCCGUUCAAGCCAGGAAAUAGAAACCUCAAGUUGCCUUGAUAGCCUGUCCUCCAAAAGCAGUCCUGUGAGUCAGGGAAGUUCUGUUAGCCUCAAUUCCAAUCAACAGAGGAUUGAGCAUCA
B14: chr1:1785892:1785993:-|3pUTR|ENSG00000078369|msi1|total|mutant (ssRNA)
RNA: GGGAGUUCUACAGUCCGACGAUCUUUACUCUCCGAAUCGCAUGCUGCCGAAAUGCUCAAAAGUGCAUAUGGGACUCAGUCCUCCGGUGUUCUUUUUCUUUUAAGAAAUAACCUCUUACAGUUGUAACCAUUGCGGCUCUGUCCCAACAGAGGAUUGAGCAUCA
B15: chr5:141516432:141516515:-|3pUTR|ENSG00000131504|msi1_unk|FALSE|overlapping (ssRNA)
RNA: GGGAGUUCUACAGUCCGACGAUCCUCAGACAAGGCCCAGCCUGCUUUUUCUCAGCCCUGACUUUCUAAUGGGCUUUCCCCCCUAGGUCAGUCUUGCUGGAUUUGUGCUUUUCUUUUGUGGUUUCUCUGGCCCUGAGAAUAGCACAACAGAGGAUUGAGCAUCA
B16: chr1:36180537:36180567:+|3pUTR|ENSG00000116871|msi1_unk|FALSE|overlapping (ssRNA)
RNA: GGGAGUUCUACAGUCCGACGAUCCAUACACACAUAUACACUCACAGCCUCUCUGGCCUCUUCCCUUGGGGAGGGGCCACCUGUAGUAUUUGCCUUGAUUUGGUGGGGUACAGUGGAUGUGAAUACUGUAAAUAGCUUGUGCUCCAACAGAGGAUUGAGCAUCA
B17: chr4:83459516:83462902:-|three_prime_utr|ENSG00000163322|control|control|control (ssRNA)
RNA: GGGAGUUCUACAGUCCGACGAUCUUACGGACCUUUUUUCCAAAUUCUGAAUUUCUUCAUUCAUGUGUUAUGUCUUUAAAAAAUAGACAUGUUUCUAAAAGUAGCUGUAACUACAACCACCAUCUCGAUGUAGUAGACAAUCUGCAACAGAGGAUUGAGCAUCA
B18: ENSG00000198589:be:win_3501|CDS|ENSG00000198589|bound_else_gene|NA|bound_elsewhere_windowed (ssRNA)
RNA: GGGAGUUCUACAGUCCGACGAUCUGAUACUGAAACUCAAGAUUCUAAAGAUUCUGGAAUUCAGACUAUGACAGCAUCAGGGUCUUCAGCUAUGUCACCAGAAACUACUGUUUCCCAAAUAGCUGUAGAAUCAGACCUUGGUCACAACAGAGGAUUGAGCAUCA
B19: chr1:220062840:220062943:-|CDS|ENSG00000162813|unk|FALSE|unique (ssRNA)
RNA: GGGAGUUCUACAGUCCGACGAUCGUUUACACAGGCAGGACCAGAUGCUGUGUUGGGGAGGACAAUCUGGGGAGUUUUAGGUUUAGGCGCCUUUGGGUUUCAGCUGAAAGAAGUCCCUGCUGGGAAACACAUUAUCACAACUACCAACAGAGGAUUGAGCAUCA
B20: ENSG00000147536:stop:overlap|stop_codon|ENSG00000147536|stop_codon|NA|stop_codon (ssRNA)
RNA: GGGAGUUCUACAGUCCGACGAUCUCCGCUACGUCCUCAGCAGCUACUUGCGGUGUCGCCUCAUGAAGUUCCCAAACCAGAUCUAGAUUCUUACGUGUUUCUGAGAGUGAGAGAACGACAAGAAAACAUACUGGUAGAACCAGACAACAGAGGAUUGAGCAUCA
B21: chrX:101413019:101413185:+|CDS|ENSG00000126945|unk|FALSE|unique (ssRNA)
RNA: GGGAGUUCUACAGUCCGACGAUCGGAGCUCUUCUUAAAUUCUACUGCAGGAACAAGUGGGGGUGCUUACGAUCACAGCUAUGUAGAACUUUUUUUGAAUUCUACAGCAGGGGCAAGUGGUGGCGCUUAUGGUAGCCAAAUGAUCAACAGAGGAUUGAGCAUCA
B22: chr20:5938399:5938502:-|3pUTR|ENSG00000089195|unk|FALSE|unique (ssRNA)
RNA: GGGAGUUCUACAGUCCGACGAUCGUCUGACUCUUAACCCUUUUGAGAAUUGCUCUGAAUUUUGUUCUCAGGCAUUAUACAGUUAGUAAUUAAACUUUAAAUGCCAUUACUACUUGUUUUUUCAUAUCCCAAGAAUAAGAACAUCAACAGAGGAUUGAGCAUCA

molecular target: MSI1 full-length (mouse, UniProt Q61474 1-362); assay: nsRBNS (natural sequence RNA bind-n-seq); RBNS binding buffer (assumed for nsRBNS): 25 mM Tris pH 7.5, 150 mM KCl, 3 mM MgCl2, 0.01% Triton X-100, 500 ug/ml BSA, 20 U/ml SUPERase-In, 4 C; UNK is unkempt and MSI1 is Musashi-1; names of the RNAs are library labels; protein concentration not given here; high values mean tight binding
Sequence of UniProt Q61474 (Q61474 whole entry): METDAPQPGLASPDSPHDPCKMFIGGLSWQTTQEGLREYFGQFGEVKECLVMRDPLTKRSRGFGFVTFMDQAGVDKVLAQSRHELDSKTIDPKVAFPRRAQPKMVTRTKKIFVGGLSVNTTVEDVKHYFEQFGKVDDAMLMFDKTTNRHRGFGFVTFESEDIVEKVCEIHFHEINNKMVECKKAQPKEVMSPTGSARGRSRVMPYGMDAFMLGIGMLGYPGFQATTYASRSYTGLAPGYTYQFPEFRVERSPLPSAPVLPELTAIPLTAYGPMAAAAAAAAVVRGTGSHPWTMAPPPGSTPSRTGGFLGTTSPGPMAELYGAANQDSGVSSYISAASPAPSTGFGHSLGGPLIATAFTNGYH

First: B1
Second: B2
The binding signal of the first is higher: 2.66 enrichment R for the first, 0.34 enrichment R for the second.

First: B3
Second: B4
The binding signal of the first is lower: 0.403 enrichment R for the first, 0.592 enrichment R for the second.

First: B5
Second: B6
The binding signal of the first is lower: 0.154 enrichment R for the first, 0.269 enrichment R for the second.

Compared with B7, B8 is higher in binding signal: 0.294 enrichment R for the first, 3.45 enrichment R for the second.

Compared with B9, B10 is lower in binding signal: 0.596 enrichment R for the first, 0.493 enrichment R for the second.

First: B11
Second: B12
The binding signal of the first is higher: 1.83 enrichment R for the first, 0.398 enrichment R for the second.

Going from B13 to B14, the binding signal falls from 1.35 enrichment R to 0.378 enrichment R.

First: B15
Second: B16
The binding signal of the first is higher: 0.443 enrichment R for the first, 0.399 enrichment R for the second.

Compared with B17, B18 is lower in binding signal: 1.05 enrichment R for the first, 0.215 enrichment R for the second.

First: B19
Second: B20
The binding signal of the first is lower: 0.838 enrichment R for the first, 26.3 enrichment R for the second.

Going from B21 to B22, the binding signal rises from 0.678 enrichment R to 0.767 enrichment R.
